{"source": "the supplement of paper PMC8728848", "binders": {"B1": {"name": "XCL (Xerocomus chrysenteron) (protein)", "chain": "MSYSITLRVYQTNRDRGYFSIVEKTVWHFANGGTWSEANGAHTLTQGGSGTSGVLRFLSTKGERITVAVGVHNYKRWCDVVTGLKPDETALVINPQYYNNGGRDYVREKQLAEYSVTSAIGTKVEVVYTVAEGNNLEANVIFS"}}, "assay_in_all_cases": "glycan array binding signal (z-score within array); higher = stronger binding", "details_in_all_cases": "glycan notation: IUPAC condensed, linker removed", "key": {"[1]": {"target": "GlcNAc(b1-3)Gal(b1-4)Glc", "summary_of_the_method": "(§1)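 Negative Z-scores can be read as non-binding. The Z-score is calculated within each array and then averaged across arrays of one protein sequence at different concentrations or buffers and across linkers. Arrays, 3228 in all, were curated from the Consortium for Functional Glycomics database and kept only where the protein sequence was available.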"}, "[2]": {"target": "GlcNAc(b1-3)Gal(b1-4)GlcNAc", "summary_of_the_method": "as §1"}, "[3]": {"target": "GlcNAc(b1-3)Gal(b1-4)GlcNAc(b1-3)Gal(b1-4)GlcNAc", "summary_of_the_method": "as §1"}, "[4]": {"target": "GlcNAc(b1-3)GalNAc", "summary_of_the_method": "as §1"}, "[5]": {"target": "GlcNAc(b1-3)Man", "summary_of_the_method": "as §1"}, "[6]": {"target": "GlcNAc(b1-3)[GlcNAc(b1-4)][GlcNAc(b1-6)]GlcNAc", "summary_of_the_method": "as §1"}, "[7]": {"target": "GlcNAc(b1-3)[GlcNAc(b1-6)]Gal(b1-4)GlcNAc", "summary_of_the_method": "as §1"}, "[8]": {"target": "GlcNAc(b1-3)[GlcNAc(b1-6)]GalNAc", "summary_of_the_method": "as §1"}, "[9]": {"target": "GlcNAc(b1-4)Gal(b1-4)GlcNAc", "summary_of_the_method": "as §1"}, "[10]": {"target": "GlcNAc(b1-4)GlcNAc", "summary_of_the_method": "as §1"}, "[11]": {"target": "GlcNAc(b1-4)GlcNAc(b1-4)GlcNAc", "summary_of_the_method": "as §1"}, "[12]": {"target": "GlcNAc(b1-4)GlcNAc(b1-4)GlcNAc(b1-4)GlcNAc(b1-4)GlcNAc", "summary_of_the_method": "as §1"}, "[13]": {"target": "GlcNAc(b1-4)GlcNAc(b1-4)GlcNAc(b1-4)GlcNAc(b1-4)GlcNAc(b1-4)GlcNAc", "summary_of_the_method": "as §1"}, "[14]": {"target": "GlcNAc(b1-4)[GlcNAc(b1-6)]GalNAc", "summary_of_the_method": "as §1"}, "[15]": {"target": "GlcNAc(b1-6)Gal(b1-4)GlcNAc", "summary_of_the_method": "as §1"}, "[16]": {"target": "GlcNAc(b1-6)GalNAc", "summary_of_the_method": "as §1"}, "[17]": {"target": "GlcNAc3Prop(b1-4)GlcNAc", "summary_of_the_method": "as §1"}, "[18]": {"target": "GlcNAc6S(b1-3)Gal(b1-4)GlcNAc", "summary_of_the_method": "as §1"}, "[19]": {"target": "Kdn(a2-3)Gal(b1-3)GalNAc", "summary_of_the_method": "as §1"}, "[20]": {"target": "Kdn(a2-3)Gal(b1-3)GlcNAc", "summary_of_the_method": "as §1"}, "[21]": {"target": "Kdn(a2-3)Gal(b1-4)Glc", "summary_of_the_method": "as §1"}, "[22]": {"target": "Kdn(a2-3)Gal(b1-4)GlcNAc", "summary_of_the_method": "as §1"}, "[23]": {"target": "Kdn(a2-3)Gal(b1-4)[Fuc(a1-3)]GlcNAc", "summary_of_the_method": "as §1"}, "[24]": {"target": "Kdn(a2-6)Gal(b1-4)GlcNAc", "summary_of_the_method": "as §1"}, "[25]": {"target": "Man(a1-2)Man(a1-2)Man(a1-3)Man", "summary_of_the_method": "as §1"}, "[26]": {"target": "Man(a1-2)Man(a1-2)Man(a1-6)[Man(a1-3)]Man", "summary_of_the_method": "as §1"}, "[27]": {"target": "Man(a1-2)Man(a1-3)Man", "summary_of_the_method": "as §1"}, "[28]": {"target": "Man(a1-2)Man(a1-3)[Man(a1-2)Man(a1-6)]Man", "summary_of_the_method": "as §1"}, "[29]": {"target": "Man(a1-2)Man(a1-3)[Man(a1-2)Man(a1-6)]Man(a1-6)[Man(a1-2)Man(a1-2)Man(a1-3)]Man", "summary_of_the_method": "as §1"}, "[30]": {"target": "Man(a1-2)Man(a1-3)[Man(a1-2)Man(a1-6)]Man(a1-6)[Man(a1-2)Man(a1-2)Man(a1-3)]Man(b1-4)GlcNAc(b1-4)GlcNAc", "summary_of_the_method": "as §1"}, "[31]": {"target": "Man(a1-2)Man(a1-3)[Man(a1-6)]Man(a1-6)[Man(a1-2)Man(a1-3)]Man(b1-4)GlcNAc(b1-4)GlcNAc", "summary_of_the_method": "as §1"}, "[32]": {"target": "Man(a1-2)Man(a1-6)[Man(a1-3)]Man(a1-6)[Man(a1-2)Man(a1-2)Man(a1-3)]Man", "summary_of_the_method": "as §1"}, "[33]": {"target": "Man(a1-2)Man(a1-6)[Man(a1-3)]Man(a1-6)[Man(a1-2)Man(a1-2)Man(a1-3)]Man(b1-4)GlcNAc(b1-4)GlcNAc", "summary_of_the_method": "as §1"}, "[34]": {"target": "Man(a1-3)[Man(a1-6)]Man", "summary_of_the_method": "as §1"}, "[35]": {"target": "Man(a1-3)[Man(a1-6)]Man(a1-6)[Man(a1-2)Man(a1-3)]Man(b1-4)GlcNAc(b1-4)GlcNAc", "summary_of_the_method": "as §1"}, "[36]": {"target": "Man(a1-3)[Man(a1-6)]Man(a1-6)[Man(a1-3)]Man", "summary_of_the_method": "as §1"}, "[37]": {"target": "Man(a1-3)[Man(a1-6)]Man(a1-6)[Man(a1-3)]Man(b1-4)GlcNAc(b1-4)GlcNAc", "summary_of_the_method": "as §1"}, "[38]": {"target": "Man(a1-3)[Man(a1-6)]Man(b1-4)GlcNAc(b1-4)GlcNAc", "summary_of_the_method": "as §1"}, "[39]": {"target": "Man(a1-6)Man", "summary_of_the_method": "as §1"}, "[40]": {"target": "Man(b1-4)GlcNAc", "summary_of_the_method": "as §1"}, "[41]": {"target": "Neu5Ac(a2-3)Gal", "summary_of_the_method": "as §1"}, "[42]": {"target": "Neu5Ac(a2-3)Gal(b1-3)GalNAc", "summary_of_the_method": "as §1"}, "[43]": {"target": "Neu5Ac(a2-3)Gal(b1-3)GalNAc(b1-3)Gal(a1-4)Gal(b1-4)Glc", "summary_of_the_method": "as §1"}, "[44]": {"target": "Neu5Ac(a2-3)Gal(b1-3)GalNAc(b1-4)[Neu5Ac(a2-3)]Gal(b1-4)Glc", "summary_of_the_method": "as §1"}, "[45]": {"target": "Neu5Ac(a2-3)Gal(b1-3)GalNAc(b1-4)[Neu5Ac(a2-8)Neu5Ac(a2-3)]Gal(b1-4)Glc", "summary_of_the_method": "as §1"}}, "note": "Some of the results follow."}
{"binder": "B1", "values": [{"measurement": "glycan array binding signal (z-score)", "setting": "[1]", "value": 0.236}, {"measurement": "glycan array binding signal (z-score)", "setting": "[2]", "value": 0.773}, {"measurement": "glycan array binding signal (z-score)", "setting": "[3]", "value": 0.789}, {"measurement": "glycan array binding signal (z-score)", "setting": "[4]", "value": 0.729}, {"measurement": "glycan array binding signal (z-score)", "setting": "[5]", "value": 0.636}, {"measurement": "glycan array binding signal (z-score)", "setting": "[6]", "value": 0.592}, {"measurement": "glycan array binding signal (z-score)", "setting": "[7]", "value": 1.7}, {"measurement": "glycan array binding signal (z-score)", "setting": "[8]", "value": 0.896}, {"measurement": "glycan array binding signal (z-score)", "setting": "[9]", "value": -0.303}, {"measurement": "glycan array binding signal (z-score)", "setting": "[10]", "value": 0.609}, {"measurement": "glycan array binding signal (z-score)", "setting": "[11]", "value": 2.02}, {"measurement": "glycan array binding signal (z-score)", "setting": "[12]", "value": 0.753}, {"measurement": "glycan array binding signal (z-score)", "setting": "[13]", "value": 0.459}, {"measurement": "glycan array binding signal (z-score)", "setting": "[14]", "value": 0.421}, {"measurement": "glycan array binding signal (z-score)", "setting": "[15]", "value": 1.01}, {"measurement": "glycan array binding signal (z-score)", "setting": "[16]", "value": 0.023}, {"measurement": "glycan array binding signal (z-score)", "setting": "[17]", "value": -0.323}, {"measurement": "glycan array binding signal (z-score)", "setting": "[18]", "value": -0.325}, {"measurement": "glycan array binding signal (z-score)", "setting": "[19]", "value": 0.964}, {"measurement": "glycan array binding signal (z-score)", "setting": "[20]", "value": -0.322}, {"measurement": "glycan array binding signal (z-score)", "setting": "[21]", "value": -0.294}, {"measurement": "glycan array binding signal (z-score)", "setting": "[22]", "value": -0.313}, {"measurement": "glycan array binding signal (z-score)", "setting": "[23]", "value": -0.242}, {"measurement": "glycan array binding signal (z-score)", "setting": "[24]", "value": -0.327}, {"measurement": "glycan array binding signal (z-score)", "setting": "[25]", "value": -0.322}, {"measurement": "glycan array binding signal (z-score)", "setting": "[26]", "value": -0.307}, {"measurement": "glycan array binding signal (z-score)", "setting": "[27]", "value": -0.315}, {"measurement": "glycan array binding signal (z-score)", "setting": "[28]", "value": -0.323}, {"measurement": "glycan array binding signal (z-score)", "setting": "[29]", "value": -0.325}, {"measurement": "glycan array binding signal (z-score)", "setting": "[30]", "value": -0.321}, {"measurement": "glycan array binding signal (z-score)", "setting": "[31]", "value": -0.27}, {"measurement": "glycan array binding signal (z-score)", "setting": "[32]", "value": -0.322}, {"measurement": "glycan array binding signal (z-score)", "setting": "[33]", "value": -0.305}, {"measurement": "glycan array binding signal (z-score)", "setting": "[34]", "value": -0.318}, {"measurement": "glycan array binding signal (z-score)", "setting": "[35]", "value": -0.325}, {"measurement": "glycan array binding signal (z-score)", "setting": "[36]", "value": -0.331}, {"measurement": "glycan array binding signal (z-score)", "setting": "[37]", "value": -0.315}, {"measurement": "glycan array binding signal (z-score)", "setting": "[38]", "value": -0.204}, {"measurement": "glycan array binding signal (z-score)", "setting": "[39]", "value": -0.32}, {"measurement": "glycan array binding signal (z-score)", "setting": "[40]", "value": -0.321}, {"measurement": "glycan array binding signal (z-score)", "setting": "[41]", "value": -0.321}, {"measurement": "glycan array binding signal (z-score)", "setting": "[42]", "value": 1.97}, {"measurement": "glycan array binding signal (z-score)", "setting": "[43]", "value": -0.308}, {"measurement": "glycan array binding signal (z-score)", "setting": "[44]", "value": -0.32}, {"measurement": "glycan array binding signal (z-score)", "setting": "[45]", "value": -0.311}]}
